PubChem BioAssay AID624296 (National Center for Advancing Translational Sciences (NCATS), 2012)
The campaign covered roughly 350,000 compounds. About 9,900 (2.8%) were called active. Inconclusive means that the source gave no clear call. Such entries were picked first, then a sample of the others. Calls follow the shape of the dose curve; as a rule, active = well fitted activation curve with a large enough effect; inconclusive = small, poorly fitted or top-dose-only effect; inactive = no such curve, though single readings can be large or run the other way. No potency is given beside an inconclusive call; the fits are too rough.

Assay: A quantitative high throughput screen for small molecules that induce DNA re-replication in MCF 10a normal breast cells. Also: nearly all actives have a fitted effect of over 50% in size. As to activity, positive = re-replication: % of control where 0% means no effect.
Settings: MCF 10A DNA re-replication, Hoechst nuclear intensity, 48 h; activity, positive = re-replication: at 46.1 µM (top of the series)
Potency is read from the fitted curve at half-maximal effect; tags tell the direction and shape of the fitted curve.

Structure (SMILES)	activity, positive = re-replication	Potency
CC(C)CC(c1nnnn1Cc1ccccc1)N1CCN(C(=O)c2ccco2)CC1 (stereo not drawn)	inactive: 1.1%	
Cc1nc(-c2ccccc2)sc1C(=O)NN		active: 18.4 µM
COc1ccc(S(=O)(=O)N2CCN(CCCOc3ccc(F)cc3)CC2)cc1OC		inconclusive [activator, single point]
C=CCN=C1N[C@@H](c2ccccc2)C(C(=O)OC)=C(C)N1CC	inactive: -36.6%	
Cc1cc2cc(CN(CCN3CCOCC3)C(=O)Nc3ccccc3F)c(=O)[nH]c2cc1C	inactive: -3.47%	
COCCSc1ccccc1C(=O)Nc1ccc(Br)cc1		inconclusive [activator, single point]
CCc1nc2ccccc2c(C(=O)OCC(=O)Nc2cccc(S(=O)(=O)NC3=NCCCCC3)c2)c1C		inconclusive [activator, partial curve, poor fit]
CCOC(=O)C1=C(C)NC(=O)NC1c1cccc(OC)c1OCc1ccccc1Cl (stereo not drawn)		inconclusive [activator, single point]
CN(C)C(=S)Nc1ccc2ccccc2c1		inconclusive [activator, full curve, poor fit]
Oc1ccc(Nc2nc(-c3ccccc3O)nc3ccccc23)cc1		inconclusive [activator, single point]
Cc1cc(C)c(C#N)c(SCC(=O)c2cc(C)n(CCc3ccccc3)c2C)n1		inconclusive [activator, full curve, poor fit]
CCn1c(SCC(=O)Nc2cccc(NC(=O)c3ccco3)c2)nnc1-c1cccs1		inconclusive [activator, single point]
CCNC(=S)N1CCN(S(=O)(=O)/C=C/c2ccccc2)CC1	inactive: 0.722%	
O=C(c1cc2ccccc2oc1=O)N(Cc1ccco1)Cc1cccs1		inconclusive [activator, full curve, poor fit]
COC(=O)c1cc(CNC(=O)c2ccccc2OCc2c(C)noc2C)ccc1OC	inactive: 5.8%	
CCCCCN(C(=O)CCC(=O)OCC(=O)N(CC#N)c1ccccc1)c1c(N)n(CCCC)c(=O)[nH]c1=O	inactive: 0.0829%	
O=C(c1ccc(Cl)cc1)c1oc2ccccc2c1CS(=O)c1ccccc1 (stereo not drawn)		inconclusive [activator, single point]
Cc1ccc(NC(=O)c2nc[nH]c2C(=O)NCCCNC(=O)c2[nH]cnc2C(=O)Nc2ccc(C)cc2)cc1	inactive: -27.6%	
C/C(CC(=O)NCCCN1CCOCC1)=N\NC(=O)COc1cccc2ccccc12		inconclusive [activator, single point]
S=C(NNc1ccnc2cc(Cl)ccc12)Nc1ccccc1Cl		inconclusive [activator, single point]
O=C(NCc1cccs1)c1cc(-c2ccccc2)nc2ccccc12		inconclusive [activator, partial curve, poor fit]
CN1CCC[C@H]1CCNC(=O)c1c(-c2ccsc2)sc2ccccc12	inactive: -4.79%	
O=C(NCCO)c1ccc2nc(Cc3cccc(Cl)c3)oc2c1	inactive: 17.2%	

Structure (SMILES)	activity, positive = re-replication	Potency
C#CCn1cc(/C=N/NC(=O)c2cc3ccccc3o2)c2ccccc21		inconclusive [activator, single point]
Clc1ccccc1CSc1nc2ccncc2[nH]1	inactive: 5.86%	
Cc1ccccc1NC(=O)c1ccc(COc2ccc3c(C)cc(=O)oc3c2)cc1		inconclusive [activator, partial curve, poor fit]
O=C1NC(c2cccc3ccccc23)Nc2ccc(Cl)cc21 (stereo not drawn)		inconclusive [activator, full curve, poor fit]
O=C(NC1CC1)c1ccc(S(=O)(=O)NCC2CCCCC2)cc1		active: 5.8 µM
CCC1CCCCN1CCCNC(=O)c1ccc2c(c1)N(Cc1ccc(F)cc1)C(=O)c1ccccc1S2=O (stereo not drawn)		inconclusive [activator, partial curve, poor fit]
Cc1cc(S(=O)(=O)NCc2ccccc2)ccc1OCC(=O)NCc1cccnc1		inconclusive [activator, single point]
O=C(Nc1ccccc1)Oc1cccc2cccnc12		active: 4.11 µM
Cc1ccc(NC(=O)CSc2nc3ccccc3nc2N2CCOCC2)cc1	inactive: 10.9%	
Cc1ccc(-c2cc(C(=O)N/N=C/C(Br)=C/c3ccccc3)n[nH]2)o1		active: 13 µM
C=C1C2(C(=O)Nc3ccc(SC(F)F)cc3)CCC(C2)C1(C)C (stereo not drawn)		inconclusive [activator, full curve, poor fit]
CC(=O)c1ccc(NC(=O)CN2c3cccc4cccc(c34)S2(=O)=O)cc1		inconclusive [activator, single point]
CCOc1ccc(C(=O)Nc2ccc(NC(=O)c3ccco3)c(Cl)c2)cc1Br		active: 5.8 µM
CN(C(=O)CCc1ccccc1F)C1CCCN(Cc2ccccc2F)C1 (stereo not drawn)		inconclusive [activator, partial curve, poor fit]
Cc1ccc(C)c(Cn2nnc3c(=O)[nH]c(C4CCCN(S(=O)(=O)Cc5ccccc5)C4)nc32)c1 (stereo not drawn)	inactive: -16.2%	
O=c1c2c(nc3n1CCCCC3)-c1ccccc1CC21CCCCC1	inactive: 0.952%	
CN1OC[C@@H]2CN(Cc3ccccc3)[C@H](c3cccc(N4CCOCC4)c3)C[C@@H]21		inconclusive [activator, full curve, poor fit]
COc1ccc(-n2c(=O)c(CCC(=O)N3CCN(c4ccccc4O)CC3)nc3ccccc32)cc1		inconclusive [activator, single point]
COc1ccc(NC(=O)CSc2nnc(NC(=O)c3ccco3)s2)cc1		inconclusive [activator, single point]
Fc1ccc(Nc2nc3ccccc3s2)cc1		inconclusive [activator, partial curve, poor fit]
O/N=C/c1cn(-c2ccccc2)nn1		inconclusive [activator, single point]
Cc1ccc(S(=O)(=O)n2ccc3c2CCCC3=O)cc1	inactive: 17%	
COc1ccc(OCc2nnc(SCC(=O)c3ccccc3)o2)cc1		inconclusive [activator, single point]

Structure (SMILES)	activity, positive = re-replication	Potency
O=C1c2ccccc2N2C(=O)c3ccccc3[C@H]2N1c1ccccc1		inconclusive [activator, partial curve, poor fit]
COc1ccc2[nH]c(=O)c(CN(Cc3cccs3)S(=O)(=O)c3cccc4nsnc34)cc2c1		inconclusive [activator, single point]
FC(F)(F)c1cccc(NC(=S)N2CCN(c3cccc(C(F)(F)F)c3)CC2)c1		inconclusive [activator, partial curve, poor fit]
CCN(CC)C(=O)COC(=O)C1CCN(S(=O)(=O)c2ccc3c(c2)OCCO3)CC1	inactive: 14.2%	
CNC1CCc2cc(OC)c(OC)c(OC)c2-c2ccc(OC)c(=O)cc21 (stereo not drawn)		active: 0.075 µM
CCNc1nc(NCC)nc(OCCNS(=O)(=O)c2cc(C)ccc2C)n1		inconclusive [activator, partial curve, poor fit]
COCC(=O)Nc1ccc(N2CCOCC2)c(S(=O)(=O)Nc2ccc(OC)cc2)c1		inconclusive [activator, single point]
COc1ccc(C2C(C#N)=C(N)N(c3ccccc3)C3=C2C(=O)CCC3)cc1Cn1cc([N+](=O)[O-])cn1 (stereo not drawn)		inconclusive [activator, single point]
CCOC(=O)N1CCN(C(=O)COc2ccccc2OC)CC1		inconclusive [activator, partial curve, poor fit]
CN(C)c1ccc(/C=N/NC(=O)c2ccc3c(c2)OCO3)cc1	inactive: -0.46%	
COc1cc(SC)ccc1C(=O)Nc1cccc(C)n1		inconclusive [activator, full curve, poor fit]
COC(=O)c1ccc(COc2ccc(C(C)(C)C)cc2)o1	inactive: -1.85%	
COc1ccc(OC)c(NC(=O)c2ccccc2N(Cc2ccccc2)S(C)(=O)=O)c1		inconclusive [activator, partial curve, poor fit]
Clc1ccc(-c2cc(C3CCNCC3)[nH]n2)cc1		inconclusive [activator, single point]
Cc1ccc(O)c(NC(=O)c2cc3nc4c(c(C(F)(F)F)n3n2)CCc2ccccc2-4)c1	inactive: 6.38%	
O=C1CC(c2ccc(O)cc2)Oc2ccccc21 (stereo not drawn)		inconclusive [activator, partial curve, poor fit]
CC1=C(C(=O)OC(C)(C)C)C(c2ccc3ccccc3c2)NC(=O)N1C (stereo not drawn)		inconclusive [activator, single point]
CCn1cc(C(=O)NCCCN2CCCC(C)C2)c(=O)c2cc(S(=O)(=O)N3CCOCC3)ccc21 (stereo not drawn)		inconclusive [activator, full curve, poor fit]
COc1ccccc1C(=O)NNC(=O)C(=O)NC1CCCCC1		inconclusive [activator, single point]
CSc1nsc2nc(=O)c(/C=C3\C=Nc4ccccc43)c(N)n12		inconclusive [activator, single point]
O=C1C(Cl)=C(O)C2(Cl)C(Cl)=C(Cl)C12Cl (stereo not drawn)		inconclusive [activator, single point]
CCCN(Cc1cc2cc(C)ccc2[nH]c1=O)C(=O)c1ccccn1		inconclusive [activator, single point]
